# Reference: the supplement of paper PMC3334620
# The full ranking holds about 33,000 sequences; the median of “E-score (-0.5 to 0.5)” is about -0.011, and the highest 2% start at about 0.28. The list shows a part of the results.
# Biological target: T1, Gcr1 (UniProt P07261)
# T1 sequence: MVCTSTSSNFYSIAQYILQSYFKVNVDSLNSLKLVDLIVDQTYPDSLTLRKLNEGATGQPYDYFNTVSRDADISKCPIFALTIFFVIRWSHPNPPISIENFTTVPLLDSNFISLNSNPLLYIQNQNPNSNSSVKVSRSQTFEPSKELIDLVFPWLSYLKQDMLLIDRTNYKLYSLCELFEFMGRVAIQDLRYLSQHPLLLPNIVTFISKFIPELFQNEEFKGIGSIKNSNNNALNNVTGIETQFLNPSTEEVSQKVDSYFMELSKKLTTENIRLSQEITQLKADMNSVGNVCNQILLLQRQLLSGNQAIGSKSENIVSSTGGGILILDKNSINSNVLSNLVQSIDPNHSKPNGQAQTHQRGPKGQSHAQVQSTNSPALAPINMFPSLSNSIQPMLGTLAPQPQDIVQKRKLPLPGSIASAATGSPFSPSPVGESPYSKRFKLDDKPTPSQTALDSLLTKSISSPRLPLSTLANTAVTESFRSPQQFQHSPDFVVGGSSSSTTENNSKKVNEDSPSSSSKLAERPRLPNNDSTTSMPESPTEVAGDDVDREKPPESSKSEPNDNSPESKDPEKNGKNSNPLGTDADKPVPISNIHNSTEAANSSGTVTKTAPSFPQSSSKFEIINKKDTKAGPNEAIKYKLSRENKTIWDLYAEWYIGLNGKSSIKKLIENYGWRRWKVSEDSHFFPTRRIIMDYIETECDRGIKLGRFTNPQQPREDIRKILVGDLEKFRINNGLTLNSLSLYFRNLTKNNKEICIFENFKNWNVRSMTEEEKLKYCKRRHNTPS
# Assay: PBM E-score (8-mer binding enrichment) (E-score (-0.5 to 0.5)); higher = stronger / more preferred TF binding; most listed sequences are background and not binding sites
# Conditions: protein concentration: 100 nM; construct: GST-full length
# How it was run: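 Yeast transcription factors carrying a GST tag, as full-length proteins or DNA-binding domains, were produced by PURExpress in vitro transcription/translation. About 100-200 nM protein was applied to universal all-10-mer Agilent arrays, double-stranded by primer extension on fresh or once-stripped slides. Bound protein was detected with fluorescent anti-GST, and scans were normalised with masliner. The Universal PBM Analysis Suite gave each ungapped eight-base word, pooled with its reverse complement, an E-score, a modified Wilcoxon-Mann-Whitney statistic.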
row,Sequence,PBM E-score
1,GGATCAAA,-0.109
2,AATTTTCG,0.0174
3,AGGACAAG,-0.177
4,GGCTACAC,-0.0387
5,CACAGCAC,-0.068
6,ACAAGTAC,0.0978
7,CCTATAGA,0.286
8,CCCCGAAG,-0.107
9,AAGCTGAT,0.0731
10,GAGATCAA,-0.0647
11,CTCACAAG,-0.00051
12,CGTATATA,0.0756
13,CCGGGACC,0.17
14,AAGACCAT,-0.102
15,GAAGGGAC,-0.279
16,ATGTTTCA,0.0598
17,CTTTGGTC,0.0162
18,AACGCTAA,0.0143
19,CGGGATTC,0.39
20,ATCCATGG,-0.0489
21,CTAAATCC,0.274
22,GCTTGTAA,0.0297
23,AGTTCTCC,-0.0656
24,CCTTGGTA,0.00547
25,CATTGAGG,-0.00551

row,Sequence,PBM E-score
1,CACGTCGA,-0.0152
2,AGCACTAA,-0.0258
3,AGGTAGGC,-0.0702
4,GACCATCC,-0.0793
5,AAACCTCT,-0.0243
6,CGAGGTCC,-0.0269
7,ATTCCATG,0.0861
8,ATTACGCA,0.0726
9,CTATGCCC,0.0148
10,AAACTGGG,0.109
11,ACCTTGTC,-0.0797
12,AGAGTTCC,-0.007
13,AGAGTCCG,0.054
14,ACTCCGTG,-0.04
15,GATATACA,0.0603
16,AACAGGTC,-0.0851
17,TGACAGAA,-0.0387
18,ATGAAAAC,0.108
19,ACTACACA,-0.00578
20,CAGATGGA,0.137
21,CGCGATAA,0.0174
22,ATGCATTG,-0.212
23,AGGGGCCG,0.0208
24,CTCCTAAG,-0.0584
25,GGGTGATA,0.0068

row,Sequence,PBM E-score
1,CACAGACA,0.0543
2,CCGATAAA,0.0653
3,TCGCGTCA,-0.044
4,CCCGGAGC,-0.144
5,GTCCATTA,0.126
6,GCACTATA,-0.0261
7,AACGACCC,-0.158
8,ATGTCTGC,-0.171
9,CCGCCATA,-0.0635
10,GCACACCA,-0.0167
11,ATTCTTCC,-0.0172
12,CCCACTCC,0.0066
13,AAGCCACA,0.186
14,CATCTCCG,0.0204
15,GACTACTC,0.0135
16,CCGTGCAG,0.00756
17,GAAGCACC,-0.0228
18,CCGGACAC,-0.0607
19,ATCTTGCA,0.00208
20,GCATATCC,-0.122
21,CGTCCAGA,0.233
22,TACTACCA,-0.00989
23,CAAAGATA,0.0616
24,ATCGGATC,0.0284
25,AGGCGTTA,-0.113

row,Sequence,PBM E-score
1,CAATCCAA,-0.0473
2,ACGTGTAC,0.0045
3,AGTATAAT,-0.0847
4,CTCGCCGA,-0.135
5,CAGAGGCA,-0.0667
6,AGACGGAT,-0.0482
7,AAGCCGCT,0.159
8,ATAGAAAA,-0.0541
9,ACCGTATA,0.0317
10,ATATGTAC,0.0201
11,CGCGCACC,0.091
12,AGAGCAGA,-0.0478
13,GAACGCGA,0.0259
14,CGAATTCG,0.164
15,AGCGCTCA,-0.218
16,CCTTGTCA,-0.149
17,AAATGTGA,0.0864
18,AATGACGA,-0.076
19,AATATTGC,0.0005
20,CCTGAATA,0.15
21,CACACAGC,-0.138
22,CATAATAA,0.0747
23,AATTGCGT,-0.0183
24,AGATACTG,0.0645
25,ACTCTCAC,-0.112

row,Sequence,PBM E-score
1,AGCGGAAT,0.217
2,CGAACGCC,-0.137
3,GATCATTA,0.00216
4,GCAGTCAA,-0.0612
5,AGCTGGGC,0.107
6,CCAAATGA,0.215
7,CACGATAG,-0.0624
8,AGTTACAG,-0.0313
9,ACACGGTC,-0.274
10,ATGCACTG,-0.153
11,AATATTTA,0.162
12,GCCAAGGC,-0.253
13,CAGTGTCG,-0.122
14,CTAAAAAG,0.183
15,TCCACACA,-0.0477
16,AGATCGAC,-0.0758
17,AAATTCGA,-0.042
18,GGCATTGA,0.0123
19,CGTATAGC,-0.0455
20,AGAACAAT,0.146
21,CACTACTC,-0.0981
22,ACCAAAGA,0.139
23,TAGCAATA,0.0436
24,ATTGGGAG,-0.141
25,AAAGTGTG,-0.0476

row,Sequence,PBM E-score
1,AAAACTCC,-0.136
2,CCAACACC,0.0562
3,GTCGTAAA,0.0176
4,CCCTATTC,-0.0171
5,AGGAGCCG,0.269
6,CCCGCTGA,-0.133
7,ATTCCCGC,0.221
8,ACATAGCC,-0.146
9,AGAGAACA,-0.148
10,GGTGGTCA,-0.132
11,ACTCCACC,0.0234
12,ATCTTTTC,0.0492
13,TGTGGAAA,0.174
14,AACTATTC,-0.0187
15,AGGCAGAG,-0.193
16,ACGGGAGT,-0.0762
17,CCCTGCAA,-0.187
18,CTTAACAC,0.00017
19,AAGCCCTA,0.0541
20,CAAGCGTA,-0.182
21,CACCTCGC,-0.161
22,AGTTATTG,-0.0268
23,CGGCTATC,-0.102
24,CTGGCCAA,-0.00374
25,AAGGGGCC,0.206

row,Sequence,PBM E-score
1,ACGGTTGC,-0.264
2,GTTATCGA,0.0381
3,ACTTAAAA,0.189
4,ATGCGCGC,0.0774
5,GTATCAAA,0.0208
6,CCTTGGCA,0.00218
7,CACATTCC,0.00327
8,CCCATAGG,-0.0627
9,ATTCCCGG,0.126
10,ACAGCGAC,0.0284
11,AGGTAGAG,-0.184
12,CGGCAGTA,-0.0464
13,GGCCCATA,-0.0625
14,GGACGCTA,0.363
15,AAGCTTGC,-0.0383
16,ACCGCGAC,0.00022
17,CCGTAGAA,0.104
18,GCTCAAGC,-0.249
19,TTAAGAAA,0.0367
20,AAAAATAA,0.0783
21,CCCGGTCC,-0.0935
22,CACGTGGG,-0.0349
